Measurements from the GPR68 mutational scans of Howard et al. (2025).

B1: GPR68, Q15743 (parent)
chain: MGNITADNSSMSCTIDHTIHQTLAPVVYVTVLVVGFPANCLSLYFGYLQIKARNELGVYLCNLTVADLFYICSLPFWLQYVLQHDNWSHGDLSCQVCGILLYENIYISVGFLCCISVDRYLAVAHPFRFHQFRTLKAAVGVSVVIWAKELLTSIYFLMHEEVIEDENQHRVCFEHYPIQAWQRAINYYRFLVGFLFPICLLLASYQGILRAVRRSHGTQKSRKDQIQRLVLSTVVIFLACFLPYHVLLLVRSVWEASCDFAKGVFNAYHFSLLLTSFNCVADPVLYCFVSETTHRDLARLRGACLAFLTCSRTGRAREAYPLGAPEASGKSGAQGEEPELLTKLHPAFQTPNSPGSGGFPTGRLA

Assays:
[1] = variants of: B1; assay: cAMP reporter score (Enrich2 score, wild type = 0); higher = more signal; HEK293T, FACS bins
[2] = variants of: B1; assay: surface expression score (Enrich2 score, wild type = 0); higher = more signal; HEK293T, FACS bins

Variant | cAMP reporter score ([1]; pH 5.5) | cAMP reporter score ([1]; pH 6) | cAMP reporter score ([1]; pH 6, modulator: ogerin) | cAMP reporter score ([1]; pH 6.5, modulator: ogerin) | surface expression score [2]
MGNITADNSSMSCTIDHTIHQTLAPVVYVTVLVVGFPANCLSLYFGYLQIKARNELGVYLCNLTVADLFYICSLPFWLQYVLQHDNWSHGDLSCQVCGILLYENIYISVGFLCCISVDRYLAVAHPFRFHQFRTLKAAVGVSVVIWAKELLTSIYFLMHEEVIEDENQHRVCFEHYPIQAWQRAINYYRFLVGFLFPICLLLASYQGILRAVRRSHGTQKSRKDQIQRLVLSTVVIFLACFLPYHVLLLVRSVWEASCDFAKGVFNAYHFSLLLTSFNCVADPVLYCFVSETTHRDLARLRGACLAFLTCSRTGRAREAYPLGAPEASGKSGAQGEEPELLCKLHPAFQTPNSPGSGGFPTGRLA [T342C] | 0.319 | 1.44 | 0.642 | 0.018 | 0.977
MGNITADNSSMSCTIDHTIHQTLAPVVYVTVLVVGFPANCLSLYFGYLQIKARNELGVYLCNLTVADLFYICSLPFWLQYVLQHDNWSHGDLSCQVCGILLYENIYISVGFLCCISVDRYLAVAHPFRFHQFRTLKAAVGVSVVIWAKELLTSIYFLMHEEVIEDENQHRVCFEHYPIQAWQRAINYYRFLVGFLFPICLLLASYQGILRAVRRSHGTQKSRKDQIQRLVLSTVVIFLACFLPYHVLLLVRSVWEASCDFAKGVFNAYHFSLLLTSFNCVADPVLYCFVSETTHRDLARLRGACLAFLTCSRTGRAREAYPLGAPEASGKSGAQGEEPELLDKLHPAFQTPNSPGSGGFPTGRLA [T342D] | -0.62 | 0.882 | 0.64 | 1.79 | 0.929

Scores whose standard error is large were omitted. Not listed are two conditions whose scores span a narrow range. Read del as a deletion of the residues named and ins as an insertion between two positions. For some of these results: The data file names ogerin without a concentration.
